Experimental findings from ChEMBL document CHEMBL4888484, “Replenishing the malaria drug discovery pipeline: Screening and hit evaluation of the MMV Hit Generation Library 1 (HGL1) against asexual blood stage Plasmodium falciparum ,using a nano luciferase reporter read-out” (2022) are described below.

The structures appear in SMILES notation. In all, about 150,000 compounds went through this assay and about 540 (0.36%) showed an effect of 50% or more. This is one part of the list.

In this assay the test system is Plasmodium falciparum. Description: Primary screen in NF54 nanoGlo assay, in single point, at 2uM, 72h; a lower Z score goes with more inhibition. The assay is classed as functional, Erythrocyte. The settings on record: timepoint 72 hour.
In the case of `CC(C)=CCN1C(=O)[C@@H]2CC[C@H]1CN(C(=O)Cn1ccc(=O)[nH]c1=O)C2`, the “% Inhibition” value is -8% and the Z score came out at 1.51.

Consider `C[C@H]1CCCN(Cc2ccccc2CNc2cncc(-n3cccn3)n2)C1`, for which the “% Inhibition” value came out at 11% and the Z score was -1.32.

With `CCc1ncc(CN[C@@H](CO)c2ccccc2F)s1`, the “% Inhibition” value is listed as -9% and the Z score is 0.83.

Turning to `CS(=O)(=O)N(CCN1CCOCC1)C1CN(S(=O)(=O)c2cccs2)C1`, the “% Inhibition” value was determined as 0% and the Z score is reported as -0.06.

Take `CCn1cc(CN(C)c2ccncc2F)c(C)n1`: the “% Inhibition” value was -10% and the Z score came out at 1.03.

As to `Cc1ccc(-c2cc(NC(=O)C3CCN(C4CC4)CC3)[nH]n2)o1`, the “% Inhibition” value is reported as -8% and the Z score is reported as 0.99.

In the case of `C[C@H]1COC(C)(C)CN1C(=O)c1ncn(C(C)(C)C)n1`, the “% Inhibition” value is recorded as -10% and the Z score was found to be 1.34.

`CCOc1cc2c(cc1CN1C[C@@H]3CC[C@H](C1)C(=O)N3)CCC2`: the “% Inhibition” value is given as -6% and the Z score was 0.73.

On to `N#Cc1ccc(N2CC(c3cccnc3)C2)nc1`, for which the “% Inhibition” value was -8% and the Z score is 1.18.

As for `Cc1c(NC(=O)N[C@@H](C)c2cc3ccccc3o2)c(=O)n(-c2ccccc2)n1C`, the “% Inhibition” value is reported as -8% and the Z score is listed as 1.11.

With `COc1ccc(C(=O)N2Cc3cccnc3C2)cn1`, the “% Inhibition” value is given as -15% and the Z score is on record as 1.78.

Consider `Cc1c(-c2cc(C3CCNCC3)c(C#N)c(N)n2)c2ccccc2n1C`, for which the “% Inhibition” value was determined as 4% and the Z score is given as -0.71.

Regarding `O=S1(=O)N=C(NCc2ccc(Cn3cccn3)cc2)c2ccccc21`, the “% Inhibition” value is on record as -1% and the Z score is 0.12.

Consider `CCN(CCc1ccccc1)Cc1nc(-c2cccnc2)no1`, for which the “% Inhibition” value is -20% and the Z score came to 2.48.

For the compound `CCCNC(=O)N1C[C@@H]2Oc3ncccc3S(=O)(=O)N[C@@H]2C1`, the “% Inhibition” value is -16% and the Z score came out at 3.18.

Consider `Cn1ncc(CNC(=O)CC2CCC2)c1NC(=O)CC1CCC1`, for which the “% Inhibition” value is on record as 32% and the Z score was -3.59.

Turning to `O=C(NCCc1cccs1)C(F)(F)F`, the “% Inhibition” value is given as -2% and the Z score was 0.25.

Consider `C[C@H]1CN(CCN2CCOC2=O)CC(C)(C)O1`, for which the “% Inhibition” value is on record as -7% and the Z score is 1.

On to `O=C(O)c1nccn1CNc1ccncc1`, for which the “% Inhibition” value came to 38% and the Z score is -4.89.

Regarding `CCN1CC[C@H](N(C)C(=O)CNc2ccccc2)C1`, the “% Inhibition” value amounted to 5% and the Z score is -0.65.

As to `CC(C)N(C)Cc1nnnn1CC(=O)N1CCC[C@H](C(=O)c2ccccc2)C1`, the “% Inhibition” value is recorded as -9% and the Z score is 1.22.

For `CN(Cc1ccccc1)C(=O)c1nn2c(C(F)(F)F)c3c(nc2c1Cl)-c1ccccc1CC3`, the “% Inhibition” value came out at 2% and the Z score is -0.36.

With `Cn1nccc1C1CC2CCC(C1)N2S(=O)(=O)c1cccc(N)c1` (stereo unspecified), the “% Inhibition” value was -6% and the Z score is listed as 1.21.

On to `O=c1[nH]c2ccccc2nc1[C@H](c1ccccc1)[n+]1ccccc1`, for which the “% Inhibition” value is on record as -3% and the Z score came to 0.23.

Turning to `O[C@@H]1COC2(C1)CN(Cc1ccc(OC(F)(F)F)cc1)C2`, the “% Inhibition” value is on record as 0% and the Z score is -0.02.

As for `CCN(C(=O)CCN1C(=O)c2ccccc2C1=O)c1ccccc1`, the “% Inhibition” value is recorded as -11% and the Z score is listed as 1.41.

On to `O=C(CCc1cccs1)N[C@H]1COCC[C@@H]1Oc1ccc(CO)cc1`, for which the “% Inhibition” value is reported as -18% and the Z score is reported as 1.59.

Regarding `O=C1OCC2(CCN(C(=O)N[C@H]3c4ccccc4C[C@@H]3O)CC2)O1`, the “% Inhibition” value worked out at 1% and the Z score is on record as -0.18.

Turning to `COc1cccc(CNC(=O)Cn2c(N3CCN(c4ccccc4)CC3)nc(C)cc2=O)c1`, the “% Inhibition” value was -9% and the Z score was determined as 1.68.

With `Cc1noc(COc2ccc(C(=O)N[C@H]3CCc4cc(C#N)ccc43)cn2)n1`, the “% Inhibition” value turned out to be 32% and the Z score was -3.66.

Consider `Cc1noc(C2CCN(C(=O)c3ccc(N4CCN(C(C)C)CC4)cc3)CC2)n1`, for which the “% Inhibition” value was determined as 6% and the Z score is given as -0.8.

Take `O=C(NCc1ccnc(-n2cncn2)c1)N1CCC[C@H]1C(F)F`: the “% Inhibition” value is listed as -6% and the Z score came to 0.91.

As for `CN(CC(=O)N(C)c1ccccc1)CC1(CO)CCCC1`, the “% Inhibition” value was -24% and the Z score is recorded as 2.29.

As for `CCc1nc(C)cc(N2C[C@@H]3OC(=O)N(C4CCN(C(C)C)CC4)[C@@H]3C2)n1`, the “% Inhibition” value is on record as -5% and the Z score is listed as 0.87.

As to `C[C@@H](Cn1ccnc1-c1nc2ccccc2[nH]1)Oc1cccnc1`, the “% Inhibition” value was -5% and the Z score was found to be 1.

`CC(C)(C)OC(=O)N1C2CCC1CC(NC(=O)c1ccoc1)C2` (stereo unspecified): the “% Inhibition” value is given as -9% and the Z score was 1.65.

In the case of `COCC[C@H](C)NC(=O)N1CCC(C)(C)C1`, the “% Inhibition” value is -17% and the Z score was found to be 1.68.

Turning to `CCC1CN(C(=O)C(C)S(C)(=O)=O)CC1N1CCOCC1` (stereo unspecified), the “% Inhibition” value is reported as -1% and the Z score is 0.08.

For the compound `C#CCNC(=O)[C@H](C)Oc1ccc(C)c(F)c1`, the “% Inhibition” value is recorded as -9% and the Z score is reported as 1.67.

For `C[C@@H](CNC(=O)NCCc1nccn1C(F)F)Oc1ccccc1`, the “% Inhibition” value is -8% and the Z score came out at 0.77.

Regarding `O=C(NCCCn1ccnc1)c1cc(=O)[nH]c2cc(F)ccc12`, the “% Inhibition” value is given as 16% and the Z score is reported as -2.

Take `O=S(=O)(NC1CCN(C2CCCC2O)CC1)c1cccc(Br)c1` (stereo unspecified): the “% Inhibition” value is -8% and the Z score is given as 0.96.

As to `CN1CC[C@H](C(=O)N2CCN(c3ccccn3)CC2)CC1=O`, the “% Inhibition” value is recorded as 3% and the Z score was -0.43.

For orientation: % Inhibition means the change of the read-out against control, counted positive when it falls.
